We go through 1 protein from article doi:10.1101/2023.01.10.523378 (bioRxiv, 2023).

The series deals with the molecule itself. Nature of the series: high-speed atomic force microscopy.

B1: rat CaMKIIα T305A/T306V holoenzyme phosphorylated at Thr286 (enzyme)
chain: not shown
modifications: phosphothreonine at 286 (pT286)
For B1, the binding result is listed as “binds”.
